Source: patent US9433687B2, “Anti-Notch3 antibodies and antibody-drug conjugates” (Pfizer Inc., priority 2012, dated 2016)

Assays:
[1] = test system: MDA-MB-468 (breast cancer); test: In vitro cytotoxicity (MTS), MDA-MB-468; type: cell-based, human; conditions: Table 14; LP = lacked potency
Description: (§1) The effects of anti-Notch3 ADCs were assessed on 1) cell lines endogenously expressing Notch3 protein: HCC2429 (lung cancer), OVCAR3 (ovarian cancer) and MDA-MB-468 (breast cancer), 2) cell lines engineered to over-express full length human Notch3 protein: MDA-MB-468/hNotch3 and U2OS/hNotch3, and 3) a negative control cell line (SW900) using an MTS cellular viability indicator (Promega, Madison, Wis.). These cell lines were cultured with increasing concentrations of anti-Notch3 ADCs comprising rat-human chimeric anti-Notch3 antibodies, ch28 and ch75, and humanized anti-Notch3 antibodies, hu28 and hu75, conjugated to various linker-payload combinations of the present invention. As a specificity control for the anti-Notch3-ADCs, non-targeted control-ADCs (huNeg8.8-ADCs or ch2H6-ADCs) were also tested on the same cell lines. After four days, viability of each culture was assessed. IC50 values were calculated by logistic non-linear regression, model #203 with XL fit v4.2 (IDBS, Guildford, Surry, UK) and presented as ng Ab/mL. The drug antibody ratio (DAR) is also provided.

[2] = test system: phospho-Histone H3 (pHH3) stained nuclei in MDA-MB-468 breast xenografts; test: pHH3 immunohistochemistry in ADC treated MDA-MB-468 xenografts; type: in vivo, mouse
Description: The MDA-MB-468 breast cancer model was used to examine the in vivo mechanism of action of hu28-vc0101. The pharmacodynamics of hu28-vc0101 was visualized at the cellular level by staining with the mitotic marker phospho-Histone H3 in ADC treated xenografts. Histone H3 is phosphorylated on Ser-10 residues (hereinafter “pHH3”) within chromatin during the mitotic phase of the cell cycle.
Mice bearing MDA-MB-468 breast xenografts were given a single 3 mg/kg dose intravenously with anti-Notch3 ADC hu28-vc0101, huNeg-8.8-vc0101 (control ADC) or PBS. Three xenografts were harvested after 6, 24 and 96 hours and processed for standard immunohistochemistry. Five micrometer thick formalin fixed, paraffin embedded tissue sections were deparaffinized in xylene substitute, rehydrated with graded alcohols to distilled water. To expose antigenic sites, tissue sections were heated in 10 mM citrate buffer pH 6.0 (Labvision) in a pressure cooker (Retriever; Electron Microscopy Sciences) and cooled to room temperature. Endogenous peroxidase activity was inactivated with 3% hydrogen peroxide for 15 min. […] Tissue sections were incubated with anti-pHH3 antibody for one hour, detected with Signalstain Boost Reagent (8114, Cell Signaling Technologies) for 30 minutes and color was developed with DAB+ (DAKO) for 5 minutes. […]
Immunohistochemically stained slides were evaluated by image analysis. […] Once digitized, the virtual slides were analyzed using Definiens Tissue Studio software. […] Individual nuclei were identified within the viable regions of the xenograft and the positivity was determined using the average brown chromogen intensity of each nuclei. Data is presented as percent (%) pHH3 positivity which is calculated using the following equation: (Number of pHH3 positive nuclei (viable region)/Total number of nuclei (viable region))*100. Determination of statistical significance was determined for each treatment group and time point compared to PBS control at 24 hour time point with Graph Pad Prism using a 2 tailed T test.

[3] = test system: OVCAR3 ovarian cancer cells; test: Disruption of microtubules, immunofluorescence (anti-alpha-tubulin, phospho-Histone H3); type: cell-based, human; conditions: 1.0 μg/ml, forty-eight hours; FIG. 10
Description: Following internalization and intracellular release of the payload from the Notch3-ADC, the presumed mechanism of action of the released payload is disruption of microtubules that are required for cell division, thereby leading to cell cycle arrest, induction of apoptosis and cell death.
OVCAR3 cells were seeded in a Lab Tec II 4 chambered coverglass with cover #1.5 borosilicate sterile slides (Thermo Fisher Scientific Inc.). […] Forty-eight hours later, cells were washed twice with HBSS++ and fixed in 4% paraformaldyhide for 10 minutes. Cells were washed three times with PBS and permeabilized with 0.5% Triton X-100 for 2 minutes. After washing cells three times with PBS, cells were blocked with 3% BSA/PBS for 30 minutes at room temperature. Cells were then incubated with 1:100 of anti-phospho-Histone H3 (Ser10) (Cell Signaling) and 2 μg/ml of anti-alpha-Tubulin, (Millipore) in 2% BSA/PBS for 2 hours at room temperature. After 2 hours, cells were washed twice with PBS and then incubated with a 1:500 dilution of goat anti-mouse Alexa Fluor 488 and goat anti-rabbit 555 for 45 minutes at room temperature. Cells were washed twice with PBS and samples were imaged on an LSM710 confocal microscope (Zeiss).

U2OS/hNotch3 = target: T1, U2OS/hNotch3 (Homo sapiens, UniProt Q9UM47); test: In vitro cytotoxicity (MTS), U2OS/hNotch3; type: cell-based; conditions: Table 14; LP = lacked potency
T1 construct: U-2 OS cells stably over-expressing human full length Notch3 protein on cell surface; expressed in transfected cells; host or cells: U-2 OS (human osteosarcoma)
T1 sequence (Q9UM47 40-2321): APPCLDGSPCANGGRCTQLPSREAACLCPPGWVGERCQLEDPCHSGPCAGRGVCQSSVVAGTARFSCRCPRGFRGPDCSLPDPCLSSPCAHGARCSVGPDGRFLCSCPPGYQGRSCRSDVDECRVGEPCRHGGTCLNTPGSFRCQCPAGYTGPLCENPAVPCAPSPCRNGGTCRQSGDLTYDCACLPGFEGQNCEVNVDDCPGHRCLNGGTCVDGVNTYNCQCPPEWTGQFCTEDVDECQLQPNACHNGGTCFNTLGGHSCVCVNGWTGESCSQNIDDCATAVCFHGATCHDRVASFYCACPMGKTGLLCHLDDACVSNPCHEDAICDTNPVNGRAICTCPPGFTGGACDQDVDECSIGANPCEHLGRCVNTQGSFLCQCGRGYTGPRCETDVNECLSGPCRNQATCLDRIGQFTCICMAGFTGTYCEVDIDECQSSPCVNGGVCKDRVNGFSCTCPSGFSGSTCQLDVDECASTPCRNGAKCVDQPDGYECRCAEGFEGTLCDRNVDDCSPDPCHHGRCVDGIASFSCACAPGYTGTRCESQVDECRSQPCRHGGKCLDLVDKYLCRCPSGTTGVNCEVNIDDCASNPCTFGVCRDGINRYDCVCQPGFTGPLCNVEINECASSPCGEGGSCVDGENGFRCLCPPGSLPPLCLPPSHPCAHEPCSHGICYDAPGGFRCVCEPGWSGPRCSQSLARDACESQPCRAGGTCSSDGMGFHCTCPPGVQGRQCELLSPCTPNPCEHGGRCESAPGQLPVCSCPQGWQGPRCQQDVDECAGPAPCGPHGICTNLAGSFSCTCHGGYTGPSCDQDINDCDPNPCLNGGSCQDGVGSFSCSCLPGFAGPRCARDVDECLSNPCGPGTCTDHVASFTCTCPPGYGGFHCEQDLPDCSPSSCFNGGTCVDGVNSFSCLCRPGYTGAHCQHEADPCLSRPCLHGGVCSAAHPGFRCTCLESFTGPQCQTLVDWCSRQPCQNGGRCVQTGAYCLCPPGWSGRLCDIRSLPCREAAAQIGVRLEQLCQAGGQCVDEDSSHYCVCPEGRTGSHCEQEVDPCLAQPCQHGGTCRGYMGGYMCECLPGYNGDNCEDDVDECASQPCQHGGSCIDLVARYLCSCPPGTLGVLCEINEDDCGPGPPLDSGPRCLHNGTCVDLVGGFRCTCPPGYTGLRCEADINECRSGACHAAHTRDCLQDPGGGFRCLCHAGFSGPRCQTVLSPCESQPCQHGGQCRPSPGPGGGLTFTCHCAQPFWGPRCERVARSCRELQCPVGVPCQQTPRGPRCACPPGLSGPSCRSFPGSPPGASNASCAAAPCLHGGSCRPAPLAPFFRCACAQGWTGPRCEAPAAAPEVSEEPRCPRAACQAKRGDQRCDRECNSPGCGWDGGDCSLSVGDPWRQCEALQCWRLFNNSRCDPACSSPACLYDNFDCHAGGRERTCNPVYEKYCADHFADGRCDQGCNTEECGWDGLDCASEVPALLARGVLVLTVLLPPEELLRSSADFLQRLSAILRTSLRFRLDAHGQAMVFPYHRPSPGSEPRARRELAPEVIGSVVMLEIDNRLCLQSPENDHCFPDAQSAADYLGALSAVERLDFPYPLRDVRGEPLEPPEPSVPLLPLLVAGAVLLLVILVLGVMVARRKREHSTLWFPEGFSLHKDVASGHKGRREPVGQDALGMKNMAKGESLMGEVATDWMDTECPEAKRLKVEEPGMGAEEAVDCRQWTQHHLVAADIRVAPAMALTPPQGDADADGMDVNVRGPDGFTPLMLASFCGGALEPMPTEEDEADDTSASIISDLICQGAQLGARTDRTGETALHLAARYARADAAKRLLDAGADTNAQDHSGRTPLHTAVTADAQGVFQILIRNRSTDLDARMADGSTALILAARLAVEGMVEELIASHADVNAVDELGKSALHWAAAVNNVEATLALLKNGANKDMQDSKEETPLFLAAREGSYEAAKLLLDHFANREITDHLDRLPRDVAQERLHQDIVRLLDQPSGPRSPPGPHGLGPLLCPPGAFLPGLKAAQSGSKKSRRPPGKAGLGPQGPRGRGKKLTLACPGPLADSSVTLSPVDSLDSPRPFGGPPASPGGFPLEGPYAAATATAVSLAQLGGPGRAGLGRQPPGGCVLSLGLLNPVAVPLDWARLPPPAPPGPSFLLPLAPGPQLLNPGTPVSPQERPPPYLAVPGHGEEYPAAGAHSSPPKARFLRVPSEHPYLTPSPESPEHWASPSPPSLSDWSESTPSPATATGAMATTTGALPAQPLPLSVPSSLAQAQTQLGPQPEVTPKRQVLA
Description: as §1

B1: hu28-vc0101: hu28 conjugated to vc0101 linker-payload (conjugate)
heavy: EVQLVESGGGLVQPGGSLRLSCAASGFTFRDYGMTWVRQAPGKGLEWVAYISSGSNYIYYAEAVKGRFTISRDNAKNSLYLQMNSLRAEDTAVYYCARRGPFVLDAWGQGTLVTVSS[letters of human IgG1 constant region omitted]
light: DIQMTQSPSSLSASVGDRVTITCKASQSINRYLHWYQQKPGKAPKLLIYNANGLQTGVPSRFSGSGSGTDFTLTISSLQPEDFATYYCLQHNTWPDTFGGGTKVEIKRTVAAPSVFIFPPSDEQLKSGTASVVCLLNNFYPREAKVQWKVDNALQSGNSQESVTEQDSKDSTYSLSSTLTLSKADYEKHKVYACEVTHQGLSSPVTKSFNRGEC
[1]
  IC50 (ng Ab/mL), MDA-MB-468: 6545 ng Ab/mL
[2]; 6 hr after single 3 mg/kg iv dose
  % pHH3: 2.54%
[2]; 24 hr after single 3 mg/kg iv dose
  % pHH3: 5.37%
[2]; 96 hr after single 3 mg/kg iv dose
  % pHH3: 5.19%
[3]
  effect on structure of the mitotic spindle apparatus: disrupted the structure of the mitotic spindle apparatus
U2OS/hNotch3
  IC50 (ng Ab/mL), U2OS/hNotch3: 1330 ng Ab/mL
